Measurements published in the supplement of paper PMC11417369.
The other results are listed elsewhere or left out.

Each sequence was assayed on PfSIP2 AP2 domain 1 (GST-tagged) (assay: gcPBM binding intensity (ln(normalized median fluorescence intensity)); higher = stronger DNA binding).
In short: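 Using an Agilent 4 × 180k array, primer-extended double-stranded 36-bp intergenic genomic probes and negative controls were exposed for 1 h to GST-fused P. falciparum DNA-binding domains expressed in E. coli. Binding was carried out in 1× PBS with 1% milk, 0.2 mg/ml BSA, 0.5% salmon testes DNA and 0.03% Triton X-100, and protein was detected with Alexa488 anti-GST antibody and a 488 nm scan. Binding intensity is the highest Masliner-normalised natural-log median intensity across replicate spots of either probe orientation.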

Row | Sequence | gcPBM binding intensity (ln)
1 | TAAAAACGATTTTTTGCACACACATAATAAGCAGAA [CACACA_site3870] | 7.96
2 | GGACAAGTTAAACGCACACAAATATATACCCCCATA [CACACA_site4996] | 7.87
3 | GATGTGATGTATTTGGTATTTTTCGATGTTGGTAGG [CACACA_negctrl_site355] | 7.1
4 | TATTATATATCAAAATGTACATTAATTTGAGTAATT [XGTACX_site5434] | 6.82
5 | TTACCTCTTTGAAATATACACACTAATCATATCAAC [CACACA_site8778] | 7.16
6 | TTTTTGCTATTCTATTATATATATAATATATTTTAC [CACACA_negctrl_site262] | 7.01
7 | TGTTCAGTAGGGCACACACACAACAAAATAAAAAAA [CACACA_site378] | 7.32
8 | GAGATTTATTTATGTGCACACTAGAACAATTGGATC [CACACA_site2090] | 8.98
9 | TTTTTTTTTTTTGTGCGTACATACCATTTTAATAAT [XGTACX_site2760] | 7.38
10 | CTTTTTTCAAAACACACACACAAGAAAATATATATA [CACACA_site3109] | 7.23
11 | AAGACATTTTTTAAGGTGCTTTGGAAAAAGGAGTAT [GTGCAC_site9816] | 7.62
12 | AAACATAAATATGAGAGTACAAAAAATATTATGAAT [XGTACX_site151] | 7.05
13 | TGAAAAAAAAAATGCACACGCATACATATAATATGT [CACACA_site641] | 7.13
14 | TTATAATATATTACAAGTTCATTCATATAATATGTT [CACACA_negctrl_site1695] | 6.8
15 | ATCTCTTAAATTTTACGTACTTATTTTATCTTCTTA [XGTACX_site8877] | 6.9
16 | AATAAATACATACATACATGCATACATATATCTCAA [TGCATGCA_site1040] | 7.1
17 | AAAAATAAAATATATATATATATATATATATATATA [CACACA_negctrl_site58] | 9.66
18 | TATTTTTATATATATACACACTTACAGATATATATT [CACACA_site5905] | 7.14
19 | AAAGGGGAGATATGAACACACAAAAAAAAAATATAT [CACACA_site7378] | 7.06
20 | TATATATATTTTAAATGTACTTATAAATTACCACTT [XGTACX_site5673] | 7.26
21 | AGAAAGGATATAAGCGTAGCTATATCATAAAAAATG [GTGCAC_negctrl_site332] | 6.68
22 | AAATAAAATTTTTGTTGTACTTATTTTTAGTATACT [XGTACX_site4254] | 7.23

Row | Sequence | gcPBM binding intensity (ln)
23 | AATATTTACAGACATGCGCACACATAAATAAATAAT [CACACA_site8760] | 8.81
24 | TAAATAAATTTGCACTGTACGCAAAAAAAAAAAAGA [XGTACX_site8781] | 8.67
25 | GTATATATATATTTATGTACTTACCTACATAATTAT [XGTACX_site4435] | 7.14
26 | CCTTTTAAGAGTTGCACACGTACAAAAAAAAAAAAA [CACACA_site3492] | 8.01
27 | AATAATAAAAAATACGCACACATGTAAACGTATGTT [CACACA_site3336] | 7.08
28 | GGCGATATAGAACTACGTACTTATACAAATTATAAT [XGTACX_site2307] | 7.23
29 | ACACATAAATGTATATATATATAAATATATGTATGT [CACACA_negctrl_site1532] | 7.08
30 | TATATATATATATATAAGCTTATAATAAAACAAAAA [XGTACX_negctrl_site568] | 9.45
31 | ATAGCAATAATGGAAAGTACAAAAAAACTTGTTATA [XGTACX_site8518] | 6.84
32 | TGTATTAATAAAAATACACACATCATATTATATAAA [CACACA_site3534] | 6.84
33 | AATCCTTACAGACACACACACACGAATAAATAAAAA [CACACA_site480] | 7.3
34 | TATGTATTATCAAAAAGTACTAAAAAAAAATAATAA [XGTACX_site4703] | 6.99
35 | TTATAATTTTTGAGCACACACAAGCATATATATATA [CACACA_site1798] | 9.3
36 | ATAAATGTTATGCATACACACTTTATACCTATTTAA [CACACA_site5967] | 7.24
37 | AAAAAAAAAAAACACACACACACATACAAAATATAT [CACACA_site1448] | 7.14
38 | ACATATGAATATTTTTGTACGTATATTGTTATTCTT [XGTACX_site4720] | 7.18
39 | TTTTTTTTTATTATCATGCACACATTTTTTTTTTTT [CACACA_site2254] | 7.56
40 | AATTATACGAAATAAAACTTAATAGACAAAAAATTA [CACACA_negctrl_site1384] | 6.78
41 | GTAATTTAAATAACAAGTACTAATGTGGATAAGCAG [XGTACX_site1163] | 7.58
42 | GTATATTTAAATAAAAGTACGTAAAGATATATTTAA [XGTACX_site8087] | 7.14
43 | ATAATATGCAATATTACACACAATTCATCATTTTTT [CACACA_site7477] | 6.83
44 | AACAAAATAAAACACACACACAAATGTACATATATA [CACACA_site2424] | 7.1

Row | Sequence | gcPBM binding intensity (ln)
45 | TAGAAGCATCATTTTACACACATGCAAATGTAAACT [CACACA_site6973] | 6.66
46 | ATTTTGTATTGACGCTGTACAAACATTAATATAATA [XGTACX_site2496] | 7.07
47 | TTTTGCGTAGCAACGAGGTTTTTAAAAATGTAACCA [GTGCAC_negctrl_site691] | 6.79
48 | TATGCAAATTAATAATGTACGAAATATTTATAATTT [XGTACX_site2324] | 6.86
49 | AAAAGGAACGGACACACACACATATATATATATATA [CACACA_site5894] | 9.31
50 | AATAAATTAGAAGGATGTACTTTGTTTAATATAGAG [XGTACX_site1943] | 7.07
51 | TAATATAATCTGAGTGCACACAAATAAATAAACATA [CACACA_site8032] | 10.3
52 | AGGTTATATATGAACAAAAATAAAATATTCATAGGC [TGCATGCA_negctrl_site46] | 6.96
53 | ATATGTAAAATGAAGATACATACATACATACATACA [CACACA_negctrl_site715] | 7.87
54 | ATGTTATAAAATATATGTACATATTTATATAAAATA [XGTACX_site5766] | 7.27
55 | ATATTATATATATGATGTACTAAATATATTATTATG [XGTACX_site1703] | 7.08
56 | TATTTTATATTATCATGTACAAAAAAAAAGAAAAGA [XGTACX_site5379] | 7.13
57 | ATAAATAATTAGAATTGTACAAAAATTATATATATG [XGTACX_site5107] | 6.79
58 | TATATAAAAAGTAATTGTACATATATATATATATAT [XGTACX_site7953] | 9.28
59 | ATATATTTATATAAATGTACACGTGAATATATAATA [XGTACX_site1166] | 7.34
60 | TCTATTAATGAATATACACACATTATATATATATAT [CACACA_site5410] | 9.13
61 | TTTATATTCTTTTTTTAACACACAAAAAAAATAAAA [CACACA_site8574] | 7.2
62 | TATCTTCATATATGGTGTACAGATTTTTTTTTTTTT [XGTACX_site5545] | 7.26
63 | ATAAAATTATTATATACATGCAAAATTAATATATTG [TGCATGCA_site507] | 6.84
64 | AAAATAAAAAAAATGAATTAGTTAAATGAAAAATAA [CACACA_negctrl_site1294] | 6.89
65 | ATTATATAATAATGCATGCACCTTATTTTCATTTCA [GTGCAC_site9922] | 10.7
66 | TTTCTTTTTTTGGGCACACAAAATTTTCTCATTTTA [CACACA_site68] | 6.96

Row | Sequence | gcPBM binding intensity (ln)
67 | TGAATAAATAAACACACACACATATATATATCTGTA [CACACA_site4184] | 7.06
68 | GTTATACATTTGAAAAGTACTCATGATTTTTTTTTT [XGTACX_site8177] | 7
69 | AATATTCAATATAAAGTGCATTATTGTGCCCCTAAT | 8.36
70 | TTTTTATTGTTATACTTATATTATTTTATGATTAAA [XGTACX_negctrl_site262] | 7.04
71 | ATAAAAATCAAAAAAAATACATAATAGTAATAATAA [GTGCAC_negctrl_site481] | 6.83
72 | AAATAGAAAAAATATACACACACTTATTAAATAAAA [CACACA_site3313] | 6.78
73 | AAATAATAAAGTATAACACACATATTTATTTATATA [CACACA_site7822] | 6.73
74 | AAAATTAAAAAAATATGTACTTATGGGTAACATCAT [XGTACX_site5548] | 6.98
75 | AAAAAATTTTAATATGCATGTAATTTTGCTTTTTCA [TGCATGCA_site1044] | 6.76
76 | AGCACGCACAGACACACACACATATTTATATTTATA [CACACA_site6291] | 7.29
77 | TAATATAGGGGTGTTCAAATAAATTTTGTTATTTTT [CACACA_negctrl_site1203] | 7.07
78 | ACCTATTTCAAACACACACACACACCCACAAACATA [CACACA_site977] | 7.62
79 | ACGAATATAGGATGTTTGCACTGTACCAATAAATGA [GTGCAC_site9808] | 7.9
80 | TTCTTAATACAAATATGTACATATATATATATATAT [XGTACX_site757] | 8.83
81 | GATGTGTAAATAAGGATATATAACAATCAACAAAAC [XGTACX_negctrl_site494] | 7.36
82 | AATAGAAAAAAAAAATGTACAAAATGTTTATAAAAA [XGTACX_site4635] | 6.79
83 | TCATTTTAAGGAAAAAGTACAAAATAATATGTTCCT [XGTACX_site1903] | 6.67
84 | AAATGAATATAAAATATACACACTTATATATTGAAT [CACACA_site202] | 6.81
85 | AAATTACCCTTGTGTACACATATATTATCTGTATTA [CACACA_site4514] | 7.1
86 | TATTGAAAGTGAATTATAACATTAAAAATATATATA [TGCATGCA_negctrl_site566] | 6.96
87 | TGAATATGTAAATGCACACCAAAAAAAAAAAAAAAA [CACACA_site3566] | 7.29
88 | CAATATAAAAGACACACACACAAACATATATTTATA [CACACA_site7697] | 6.89
